According to the supplement of paper PMC3334620:
Whole data set: some 33,000 sequences, median “E-score (-0.5 to 0.5)” near -0.041, cut for the highest 2% near 0.37. The list shows a part of the results.

target: T1, Ecm22 (UniProt Q05958); assay: PBM E-score (8-mer binding enrichment) (E-score (-0.5 to 0.5)); higher = stronger / more preferred TF binding; most listed sequences are background and not binding sites; settings: protein concentration: 200 nM; construct: GST-full length
T1 sequence: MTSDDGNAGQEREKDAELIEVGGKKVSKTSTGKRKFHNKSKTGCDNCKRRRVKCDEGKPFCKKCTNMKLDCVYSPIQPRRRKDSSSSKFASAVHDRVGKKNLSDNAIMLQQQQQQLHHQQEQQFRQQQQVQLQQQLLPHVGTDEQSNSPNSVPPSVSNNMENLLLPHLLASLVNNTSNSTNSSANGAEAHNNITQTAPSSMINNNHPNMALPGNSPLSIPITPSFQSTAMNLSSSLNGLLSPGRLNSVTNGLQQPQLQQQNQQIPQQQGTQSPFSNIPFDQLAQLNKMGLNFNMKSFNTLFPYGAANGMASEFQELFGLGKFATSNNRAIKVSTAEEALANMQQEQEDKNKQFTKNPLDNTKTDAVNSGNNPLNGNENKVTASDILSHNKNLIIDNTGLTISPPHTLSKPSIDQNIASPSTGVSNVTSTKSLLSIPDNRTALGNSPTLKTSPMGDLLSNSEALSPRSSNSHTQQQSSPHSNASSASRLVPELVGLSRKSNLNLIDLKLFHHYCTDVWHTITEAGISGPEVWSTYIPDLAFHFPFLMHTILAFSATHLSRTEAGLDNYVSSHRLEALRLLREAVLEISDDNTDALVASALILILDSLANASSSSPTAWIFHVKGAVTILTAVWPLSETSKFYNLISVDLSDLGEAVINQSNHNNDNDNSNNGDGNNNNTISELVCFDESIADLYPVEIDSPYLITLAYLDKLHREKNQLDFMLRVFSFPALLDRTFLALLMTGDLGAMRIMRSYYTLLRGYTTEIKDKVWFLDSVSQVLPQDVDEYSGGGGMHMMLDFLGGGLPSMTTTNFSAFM
In short: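 The E-score, a modified Wilcoxon-Mann-Whitney statistic, was computed by the Universal PBM Analysis Suite for every ungapped eight-base word pooled with its reverse complement. Scans behind it were normalised with masliner after bound GST-tagged yeast transcription factors were detected with fluorescent anti-GST. The proteins, at about 100-200 nM, had been applied to universal all-10-mer Agilent arrays made double-stranded by primer extension.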

| Sequence | PBM E-score |
| --- | --- |
| CGTGATCA | -0.114 |
| AATCGTTA | 0.269 |
| ATATGCCC | -0.261 |
| TCCACGGA | -0.117 |
| ATAAAGCA | -0.21 |
| ATATCAAG | 0.0598 |
| CATACAGG | -0.109 |
| CCCCTGAG | -0.102 |
| AGATGTAA | -0.0972 |
| CTATCATC | 0.0272 |
| ACTGAGGG | -0.17 |
| CGGTCCAA | -0.145 |
| TATTCTGA | -0.106 |
| CTATGGAG | -0.148 |
| AAGTTTAC | 0.202 |
| AGTACGGC | 0.339 |
| GCTTGAGA | -0.0858 |
| CTAGACGA | 0.106 |
| ATAGTTTA | 0.0483 |
| ACACCGGG | -0.216 |
| AGACTGGG | -0.224 |
| CCAGCTCC | -0.0495 |
| GAATTGCA | -0.00573 |
| ATACCTAC | 0.0801 |
| GATGACCC | -0.064 |

| Sequence | PBM E-score |
| --- | --- |
| ACTCGAAC | 0.174 |
| AGACTGCG | -0.242 |
| CTTCACTA | -0.235 |
| ACCGAGGA | 0.303 |
| ACGCTAGA | -0.161 |
| TAGTGCCA | -0.21 |
| CCATACGA | 0.462 |
| ACAATCTG | -0.209 |
| ATCAAGTA | -0.132 |
| TAGTAAAA | -0.00806 |
| AGTATGTA | 0.00181 |
| CGACTGTA | 0.108 |
| ACACCGGC | -0.00457 |
| TATCCTAA | -0.0902 |
| AAGCAGTC | -0.0879 |
| GTCAATGA | -0.164 |
| AAAGACTT | -0.0715 |
| CTGAGATA | -0.0217 |
| ACTGAGCT | -0.275 |
| CAAGGCGC | -0.171 |
| AAAATGCG | 0.198 |
| TAAAGATA | 0.0588 |
| GGGTGCAA | -0.11 |
| GGGAAAGA | -0.051 |
| AGCGGCGC | -0.222 |

| Sequence | PBM E-score |
| --- | --- |
| CGACATCA | 0.231 |
| GGGAGCCA | -0.244 |
| AGATAGTA | -0.0423 |
| GAAGGGTC | -0.232 |
| GCCCTTAA | -0.128 |
| CATCACAA | -0.141 |
| TATCGCCA | -0.0963 |
| CCCGACGG | 0.151 |
| ATAAGTTC | 0.0564 |
| TATCGACA | 0.0654 |
| ACAAGTCT | -0.156 |
| GTGATCCA | -0.181 |
| GAACTACA | 0.042 |
| CACTCGTC | 0.0448 |
| AGACATAT | -0.0669 |
| AAAGCCGG | 0.0157 |
| CTACTCAG | -0.308 |
| CTAAGGGA | 0.0248 |
| TACGTGAA | 0.242 |
| AATGCCTG | -0.0553 |
| AGCGGTCC | 0.105 |
| CATGCCAC | -0.102 |
| AACAAGAG | -0.016 |
| CTTTCACA | 0.00363 |
| AAAATTAA | -0.0928 |

| Sequence | PBM E-score |
| --- | --- |
| GCGGCCTA | -0.19 |
| AGGAAAAT | -0.0694 |
| ATTACCAC | -0.037 |
| AATATATC | -0.0729 |
| GAAGCTTA | 0.135 |
| AACTGACA | -0.0147 |
| GAGACGGC | -0.00839 |
| CGGCACCA | -0.0406 |
| CTATGTAC | 0.179 |
| AACTAATC | 0.0238 |
| GGATCAGA | -0.174 |
| AATACCAA | -0.12 |
| GATTAAGA | 0.106 |
| AAGCCATA | -0.0528 |
| ACGCTCCC | -0.0885 |
| GAACGGTC | 0.298 |
| TCTTTTCA | -0.313 |
| AATAGACA | -0.16 |
| AAATTGCG | 0.249 |
| CTCTATGA | -0.217 |
| AGGAGAAA | -0.281 |
| GACCACTA | -0.136 |
| GTGTACAA | 0.0152 |
| ACCGGAGT | 0.102 |
| GGCTTTAC | 0.161 |

| Sequence | PBM E-score |
| --- | --- |
| ACAAGTCC | -0.254 |
| AGGTTTGG | -0.0826 |
| ATCTAGAT | 0.0119 |
| CAGTGCCA | -0.0561 |
| ATGAACTC | -0.123 |
| ATCAGTCA | 0.00779 |
| CTCTTAGC | -0.0299 |
| GAATAACA | 0.0805 |
| CTTATAAA | 0.0194 |
| CGCAAACA | 0.119 |
| CTCCTGTA | -0.121 |
| CAAATAGC | -0.131 |
| CAGTGGCC | -0.205 |
| CCCCTTGC | -0.239 |
| ACGACCGC | 0.338 |
| ACTAGTTA | -0.0126 |
| ACGGAACG | 0.442 |
| CCTAATAC | -0.0913 |
| ATGGCTGC | -0.0911 |
| GTCTAGTA | 0.0206 |
| TCAGAAGA | -0.137 |
| AATCAGAC | -0.0272 |
| CAGAGCTG | -0.234 |
| AGTCATAA | -0.0737 |
| CTGGGAAA | -0.186 |

| Sequence | PBM E-score |
| --- | --- |
| GGAGAAAA | -0.112 |
| TCATCTAA | 0.0209 |
| AGATGACA | -0.206 |
| TATCCGGA | 0.11 |
| CCACAACG | 0.0279 |
| GCCGTAAA | 0.366 |
| ATTCTTTA | 0.0137 |
| GCCATGCA | -0.175 |
| CCGGGGCG | -0.103 |
| CAATCGTG | -0.215 |
| CATCCACG | -0.0554 |
| GGTCGAAC | 0.102 |
| GGTAGTAA | -0.0356 |
| AAGGTCGA | -0.0116 |
| GCGCGCTA | 0.122 |
| GTATCTCA | 0.017 |
| AGATTGCG | 0.0917 |
| CACCGTCA | -0.0843 |
| TAATTGAA | -0.239 |
| CCAGCGCC | -0.027 |
| AGACGAAA | 0.194 |
| GATCCCGC | 0.0461 |
| CGAGATCG | 0.254 |
| AATCCCAT | -0.218 |
| AAGATGCA | -0.11 |

| Sequence | PBM E-score |
| --- | --- |
| CCGAGTCC | 0.0498 |
| CGCGTCCA | 0.0786 |
| GGATACCC | -0.00516 |
| CGCCTTTC | 0.0685 |
| ATAAATGA | 0.0138 |
| CCGGTAGG | -0.192 |
| GCTTCTCA | -0.178 |
| CACTCGGC | 0.215 |
| AACTACTC | -0.09 |
| CCTCGGGA | 0.0836 |
| AGTCTTTC | -0.108 |
| ATGCACCA | -0.108 |
| AACTTTAC | 0.0789 |
| AAGCGAAT | 0.277 |
| CATAATAG | 0.15 |
| GTACCACA | 0.256 |
| CGGGCAAC | 0.0612 |
| AGCTTCAT | 0.0197 |
| CCATATCA | 0.0475 |
| CGACCCGC | 0.03 |
| GTTTTTTA | -0.014 |
| ACGCCTGG | -0.0525 |
